Measured values reported in PubChem BioAssay AID1345082 (National Center for Advancing Translational Sciences (NCATS), 2018).
Where “and” joins values, the source holds several entries; their conditions need not be identical. Equal entries are not always repeated. Screen size: about 94,000 compounds; about 4,000 (4.3%) were called active. Inconclusive means that the source gave no clear call. Such entries were picked first, then a sample of the others. Calls follow the shape of the dose curve; as a rule, active = well fitted inhibition curve with a large enough effect; inconclusive = small, poorly fitted or top-dose-only effect; inactive = no such curve, though single readings can be large or run the other way. Where the call is inconclusive, the potency comes from a doubtful curve fit.

Test: Cytotoxic Profiling in NIH 3T3 Cell Line of Diverse Libraries Using Quantitative High-Throughput Screening; also: nearly all actives have a fitted effect of over 55% in size
Conditions: NIH 3T3 viability, CellTiter-Glo ATP luminescence, 48-72 h; series mostly up to 96.7 µM
How it was run: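 Cells were seeded at 400 per well, treated with pin-transferred compound, and kept 48 or 72 hr at 37 °C before CellTiter-Glo addition and luminescence imaging of cellular ATP.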
Potency is read from the fitted curve at half-maximal effect; tags tell the direction and shape of the fitted curve.

| SMILES | Potency |
| --- | --- |
| O=C(c1ccc(Cl)cc1)N1CC2(CCCN2Cc2ccccn2)Cc2ccccc21 (stereo not given) | inconclusive: 50.1 µM [inhibitor, partial curve, poor fit] |
| Cc1ccc(Nc2ccnc(N3CCC(C(=O)NCC(F)(F)F)CC3)n2)cc1 | inconclusive: 44.7 µM [inhibitor, partial curve, poor fit] |
| O=C(c1ccc(F)cc1)N1CCC2(CNc3ccccc3[S+](=O)([O-])N2)C1 (stereo not given) | inconclusive: 35.5 µM [inhibitor, single point] |
| COc1ccc(-c2cc(C(=O)NC3CC3)c3c(C)nn(-c4ccccc4)c3n2)cc1 | active: 22.4 µM |
| Fc1ccccc1-c1noc(NCCc2ccc(Cl)cc2)n1 | inconclusive: 70.8 µM [inhibitor, single point] |
| O=C(NC1CCN(c2nccc(Nc3ccccc3F)n2)CC1)c1ccc(C(F)(F)F)cc1 | active: 35.5 µM |
| O=C1Nc2ccc(-c3ccccc3)cc2C(=O)N2CCN(C(=O)c3ccccc3)C[C@H]12 | inconclusive: 112 µM [inhibitor, partial curve] |
| Cc1ccc([S+](=O)([O-])NC[C@@H]2CC[C@H]3C[C@@H]2C3(C)C)cc1 | inconclusive: 56.2 µM [inhibitor, partial curve, poor fit] |
| O=C(c1ccc(F)cc1)N1CCC[C@H]1c1nc(-c2ccccc2)no1 | inactive |
| O=C(Nc1ccccc1)N1CCC2(C1)C(=O)N(CCc1ccccc1)c1ccccc12 (stereo not given) | inactive and inconclusive: 50.1 µM [inhibitor, partial curve, poor fit] |
| C[C@@H](N)C(=O)N1CCC(C(=O)Nc2cccc(-c3cccc(Cl)c3)c2)CC1 | active: 28.2 µM |
| CCCN1CCN(C(=O)c2c(OCC3CC3)cc(=O)n3c2CCOCC3)CC1 | inactive |
| CC1(C(=O)NCc2cccnc2)CCc2cnc(Nc3ccccc3)nc21 (stereo not given) | active: 25.1 µM |
| COc1cccc(CC(=O)N2CCC3(CC2)NC(=O)N(c2cccc(Cl)c2)N3)c1 | inconclusive: 44.7 µM [inhibitor, partial curve, poor fit] |
| CCc1cccc(NC(=O)CC2CCCN(c3cn[nH]c(=O)c3)C2)c1 (stereo not given) | inactive |
| COc1ccc(-c2ccccc2)cc1N1C(=O)[C@@H]2C[C@H]1CN2C(=O)[C@H]1CCCN1 | inconclusive: 56.2 µM [inhibitor, partial curve, poor fit] |
| Cc1ccc(CN2C(=O)[C@@H]3C[C@@H](O)CN3C3(CN(Cc4ccc(C(F)(F)F)cc4)C3)C2=O)o1 | inconclusive: 28.2 µM [inhibitor, full curve] |
| CC(C)NC(=O)C1CCCCN1Cc1ccc(-c2ccsc2)cc1 (stereo not given) | inconclusive: 50.1 µM [inhibitor, partial curve, poor fit] |
| O=C1CCCN1CCCN1C(=O)[C@H]2CNC[C@H]2C1=O | inactive |
| CCOC(=O)Cc1csc(NC(=O)C2CC(=O)N(c3n[nH]c4cccc(F)c34)C2)n1 (stereo not given) | inactive |
| COc1cccc(-c2ccc(CN3CCCC3C(=O)NCc3ccc(F)cc3)cc2)c1 (stereo not given) | inconclusive: 44.7 µM [inhibitor, partial curve, poor fit] |
| Cc1ccccc1NC(=O)C1=NO[C@@H]2CN(CCc3ccccc3)C[C@H]12 | inconclusive: 89.1 µM [inhibitor, partial curve] |

| SMILES | Potency |
| --- | --- |
| Cc1nc(C2CC23CCN(S(=O)(=O)c2cn(C)cn2)CC3)no1 (stereo not given) | inactive |
| CC(C)CCN1CCCC2(C1)C(=NC1CCCCC1)NC(=O)N2c1cccnc1 (stereo not given) | inconclusive: 17.8 µM [inhibitor, full curve, poor fit] |
| COc1ccccc1-c1cc(C(=O)NCCc2ccc(Cl)cc2)c2cnn(C)c2n1 | inconclusive: 70.8 µM [inhibitor, single point] and inconclusive: 50.1 µM [inhibitor, partial curve, poor fit] |
| COc1cccc(-c2cnc3[nH]cc(CC(N)=O)c3c2)c1 | active: 70.8 µM |
| O=C(NCC1CCCO1)c1noc(-c2ccc[nH]c2=O)n1 (stereo not given) | inactive |
| CN1C[C@@H](NC(=O)Nc2ccccc2)C[C@H]1c1nc(-c2ccc(F)cc2)no1 | inconclusive: 100 µM [inhibitor, partial curve, poor fit] |
| CCC(CC)C(=O)NC[C@@H]1C=C(C)[C@H](Cc2nc3ccc(C(=O)OC)cc3[nH]2)C[C@H]1C(C)C | inconclusive: 35.5 µM [inhibitor, partial curve, poor fit] |
| CCOC(=O)c1ccc(NC(=O)Cn2nc3n(c2=O)CCCCC3)cc1 | inactive |
| O=C(Cc1ccsc1)NCC1CCCCC(=O)N1 (stereo not given) | inactive |
| CC(C)(C)NC(=O)N1CCCCCCNC(=O)[C@@H]2C[C@@H](C(=O)NCCc3cnc[nH]3)C[C@@H]21 | inactive |
| CC(C)N[C@H]1C[C@@H](Cc2cc(-c3ccccc3)on2)C1(C)C | active: 63.1 µM |
| O=C(NC1CCCC1)c1ccc2nnc(-c3cccc(OC(F)(F)F)c3)n2c1 | inconclusive: 44.7 µM [inhibitor, partial curve, poor fit] |
| CCOc1ccc(CC(=O)N2CCC(Cc3nc(-c4ccc(OC)cc4)no3)CC2)cc1 | inconclusive: 31.6 µM [inhibitor, partial curve, poor fit] |
| Cc1ccccc1CCN1CCCC(CN(C)C(=O)c2cc3ccccc3[nH]2)C1 (stereo not given) | inconclusive: 50.1 µM [inhibitor, partial curve, poor fit] |
| CNc1ncncc1-c1nc(-c2ccccc2)no1 | inconclusive: 50.1 µM [inhibitor, partial curve, poor fit] |
| CCN(CC)C(=O)C[C@@H]1c2nc(NC(=O)c3cccs3)sc2C[C@@H]2[C@](C)(CO)[C@H](O)CC[C@]21C | inactive |
| CC1(c2ccccc2)N(Cc2ccc(O)cc2)C(=O)OC12CCN(CC1CC1)CC2 (stereo not given) | active: 79.4 µM |
| Cc1ccc(-c2cc(N3CCCN(C(=O)CCc4ccccc4)CC3)n[nH]2)cc1C | inconclusive: 44.7 µM [inhibitor, partial curve, poor fit] |
| O=C(Cn1c2c(c(=O)n1Cc1ccccc1)CCN(Cc1ccccc1)C2)NCc1ccc2c(c1)OCO2 | inconclusive: 44.7 µM [inhibitor, partial curve, poor fit] |
| CCNC(=O)[C@@H]1C[C@H](NC(C)=O)CN1Cc1ccc(OC2CCCC2)cc1 | inactive |
| CC(=O)Nc1nc2c(s1)C[C@@H]1[C@](C)(CO)[C@H](O)CC[C@@]1(C)[C@@H]2CC(=O)N1CCOCC1 | inactive |
| CNC(=O)c1cc(C2CC2)nc2c1c(C1CCN(C(=O)c3ccc(Cl)nc3)CC1)nn2C | inconclusive: 70.8 µM [inhibitor, single point] |

| SMILES | Potency |
| --- | --- |
| CCn1c(Cn2ccnc2)nnc1C1CCN(Cc2ccc(F)c(F)c2)CC1 | inactive |
| O=C(c1ccc[nH]c1=O)N1CCC(n2cc(-c3nc(-c4ccccc4)no3)nn2)CC1 | inactive |
| CCCn1ncc(N2CCC(C(=O)N(CCc3ccncc3)CC3CCCO3)CC2)cc1=O (stereo not given) | inactive |
| CC(C)OC(=O)c1ccc(NC(=O)Cn2nc3c(cc2=O)CCCCC3)cc1 | inconclusive: 44.7 µM [inhibitor, partial curve, poor fit] |
| O=C(C1CCCN(Cc2cccc(-c3ccc(F)cc3F)c2)C1)N1CCN(Cc2ccccc2)CC1 (stereo not given) | active: 39.8 µM |
| O=C(NCC(=O)N1CCCCC1)c1cccc(-c2ccsc2)c1 | inconclusive: 70.8 µM [inhibitor, partial curve, poor fit] |
| CC1Oc2ccc(NC(=O)Nc3ccccc3)cc2CN(Cc2ccccc2)C1=O (stereo not given) | active: 35.5 µM |
| COc1ccc(CCN2Cc3cc(NC(=O)Cc4ccc(F)cc4)ccc3OC(C)C2=O)cc1 (stereo not given) | inconclusive: 50.1 µM [inhibitor, partial curve, poor fit] |
| Cc1cccc(N2CCN(C(=O)CCc3conc3-c3ccccc3)CC2)c1C | inconclusive: 70.8 µM [inhibitor, single point] |
| Cc1nn2c(c1-c1ccccc1C(C)C)N(C(=O)Cc1ccc3c(c1)OCO3)CCC2 | active: 39.8 µM |
| CCOC(=O)N1CCN(Cc2nc(-c3ccc(C)s3)oc2C)CC1 | inconclusive: 56.2 µM [inhibitor, partial curve, poor fit] |
| CCC(CC)C(=O)N[C@H]1CCN2C(=O)c3cc(-c4cc(Cl)ccc4OC)ccc3NC(=O)[C@@H]2C1 | inactive |
| COC[C@@H]1CN(S(=O)(=O)c2ccccc2C)C[C@H]1c1nc(C)no1 | inactive |
| COc1ccc(-c2nnc(C[C@@H]3C[C@@H](C(C)C)[C@H](CN(C)CCC#N)C=C3C)o2)cc1 | active: 89.1 µM |
| COc1ccc(CN2CCOc3nc(-c4cc(F)cc(F)c4)ncc3C2=O)cc1 | inconclusive: 28.2 µM [inhibitor, full curve] |
| CCn1ccnc1CN1CCCC12CCN(c1ccc(C(F)(F)F)cn1)CC2 | inconclusive: 56.2 µM [inhibitor, partial curve, poor fit] |
| COc1ccc(-c2nccc3c(=O)cc(N(C)C)oc23)cn1 | active: 50.1 µM |
| O=C(O)C1CCc2nnc(C3CCCN(S(=O)(=O)c4cccs4)C3)n21 (stereo not given) | inactive |
| O=C(NCCc1ccccc1)c1cnc2c(c1)N([S+](=O)([O-])c1cccnc1)CCC2 | inconclusive: 56.2 µM [inhibitor, partial curve, poor fit] |
| Cc1cn2nc(C(=O)N3CCC(NC(=O)C(C)c4ccccc4)CC3)cc2c(=O)[nH]1 (stereo not given) | inactive |
| Cn1nc(-c2ccncc2)cc1NC(=O)Cc1ccc(F)cc1 | inconclusive: 25.1 µM [inhibitor, full curve] |
